Experimental data published in the RNAGym collection of RNA variant scans (doi:10.7554/elife.90254).
The source gives no read counts; variants with many changes may rest on few reads.

B1: LINE1-full (parent)
chain: UACGUAGGUGGUUUUCCCCUGAUAGUGCUAAGGGGGCCUGGAAGUUUGGACUGGGCAGAGCUCAACACAGCGUGGCAAAGUGGCUGUGGCUAGACUGCCUCUCUGGAUUCCUCGUCACUCAGCAGGGCAUCUCUGAGAGAAAUGCC

Variants of: B1
Test: self-cleavage, relative activity (ratio to wild type); higher = more cleavage; in vitro, sequencing; the parent is a self-cleaving ribozyme

For U12C U15C U47C A67U, which self-cleavage is on record?
Its self-cleavage is 0.83.

For U62C A77U A117U A138U, which self-cleavage is on record?
The self-cleavage was 0.03.

For U14C G21U A50C U87A U112G A117U A129G, which self-cleavage is on record?
The self-cleavage was 0.

Which self-cleavage does the source give for U45G A79G U112C here?
The self-cleavage was 1.41.

With A59G A124G U130C as the variant, how does the self-cleavage read?
The self-cleavage was 0.21.

Which self-cleavage does the source give for C17A U85C U96A A117G here?
The self-cleavage was 0.23.

With A22G A43G U96A as the variant, how does the self-cleavage read?
The self-cleavage was 0.19.

With U39C U52A A65U A77G A141G as the variant, how does the self-cleavage read?
The self-cleavage was 0.35.

For A77U U132C A138G, which self-cleavage is on record?
Its self-cleavage is 0.54.

For G4A U26G U47C, which self-cleavage is on record?
Its self-cleavage is 0.97.

For U12G A43G U112C, which self-cleavage is on record?
Its self-cleavage is 1.75.

Which self-cleavage does the source give for U14C A42U A94G C116U U132C here?
Its self-cleavage is 0.29.

For U15C U73A U102C U132C A141G, which self-cleavage is on record?
The self-cleavage was 1.49.

For U52A U73A U85A, which self-cleavage is on record?
The self-cleavage was 0.08.

For U9C U29A U45G U96A, which self-cleavage is on record?
Its self-cleavage is 0.

Which self-cleavage does the source give for G80U U100C A117G here?
The self-cleavage was 0.57.

For U12G U108C A138G, which self-cleavage is on record?
Its self-cleavage is 2.37.

With A2G U9A U29C as the variant, how does the self-cleavage read?
Its self-cleavage is 1.08.

With U20C G35A A42G A124U A129G U134C as the variant, how does the self-cleavage read?
The self-cleavage was 2.68.

Which self-cleavage does the source give for U13C U62C U130C here?
The self-cleavage was 0.

With G40A A78C A107G as the variant, how does the self-cleavage read?
Its self-cleavage is 1.87.

For U13A U14A C66A, which self-cleavage is on record?
Its self-cleavage is 0.06.

Which self-cleavage does the source give for A69G U96C A141G here?
Its self-cleavage is 0.

With U39C G86U A117U U134C as the variant, how does the self-cleavage read?
The self-cleavage was 0.05.

With G54A A69U G114U as the variant, how does the self-cleavage read?
The self-cleavage was 0.

Which self-cleavage does the source give for G4A C19U U87A A124G here?
Its self-cleavage is 0.06.

Which self-cleavage does the source give for G33C C37G A117G A142G here?
Its self-cleavage is 1.75.

With U45C G89U A136U as the variant, how does the self-cleavage read?
Its self-cleavage is 0.01.

Which self-cleavage does the source give for U81A A107G U143A here?
The self-cleavage was 1.92.

Which self-cleavage does the source give for A42G U46C C99U A121G here?
The self-cleavage was 0.95.

With U13C U14C G32A G49A U102C as the variant, how does the self-cleavage read?
Its self-cleavage is 0.72.

Which self-cleavage does the source give for A2G U85C A142G here?
The self-cleavage was 0.84.

For A50U U85C A138G, which self-cleavage is on record?
Its self-cleavage is 0.1.

With U1C U26G G35U A124U as the variant, how does the self-cleavage read?
Its self-cleavage is 0.8.

Which self-cleavage does the source give for U26C C111U U119A here?
The self-cleavage was 1.58.

For A57G C95A A141G, which self-cleavage is on record?
Its self-cleavage is 0.17.

For C56G A64G A124U, which self-cleavage is on record?
The self-cleavage was 0.04.

With U12G G88A A129G as the variant, how does the self-cleavage read?
The self-cleavage was 0.04.

For C3U U14C C110U U112C A140G, which self-cleavage is on record?
Its self-cleavage is 1.33.

Which self-cleavage does the source give for A64G A77G A142G here?
Its self-cleavage is 0.57.

Which self-cleavage does the source give for U62C U81C A141U here?
The self-cleavage was 0.13.

For A22G G35C G54U, which self-cleavage is on record?
The self-cleavage was 0.69.

Which self-cleavage does the source give for U62C U81A A129G A141G here?
The self-cleavage was 0.05.

With U45C A59U C76U A92G A129U as the variant, how does the self-cleavage read?
Its self-cleavage is 0.12.

With U29C G41U U62C A64C U81C C103A as the variant, how does the self-cleavage read?
The self-cleavage was 0.04.

Which self-cleavage does the source give for C19U A42G U85G G97C U130C A136G here?
Its self-cleavage is 0.

For A2G U15C U29C U45A A67G A136U, which self-cleavage is on record?
The self-cleavage was 0.37.

With A6G C19U G83A as the variant, how does the self-cleavage read?
Its self-cleavage is 0.11.

With G60A A107G U134G A141G as the variant, how does the self-cleavage read?
Its self-cleavage is 0.02.

Which self-cleavage does the source give for A65U G105U U130C here?
Its self-cleavage is 0.12.

Which self-cleavage does the source give for U9C U14C G114A here?
Its self-cleavage is 1.15.

For U12G U13A A65U A107G A136G, which self-cleavage is on record?
Its self-cleavage is 0.42.

For U9C U91A A141G, which self-cleavage is on record?
The self-cleavage was 0.

Which self-cleavage does the source give for C19U U134C A140U here?
The self-cleavage was 1.84.

Which self-cleavage does the source give for U5C U96C U104C G106A A124U here?
The self-cleavage was 0.17.

With A43G A67G U102C A141G A142U as the variant, how does the self-cleavage read?
Its self-cleavage is 0.

Which self-cleavage does the source give for A31U G35A A43G C56U U109A C145U here?
The self-cleavage was 0.1.

For G93A U102C U108C U112C U130C, which self-cleavage is on record?
The self-cleavage was 0.

Which self-cleavage does the source give for G36U G49C U100C here?
The self-cleavage was 2.68.

For A31G G32C G55A G86U U102C A140U, which self-cleavage is on record?
Its self-cleavage is 0.07.

With U62C G80A U119A as the variant, how does the self-cleavage read?
Its self-cleavage is 0.03.

Which self-cleavage does the source give for U13C U45C U119A here?
The self-cleavage was 0.38.

With C28G A59G A138U as the variant, how does the self-cleavage read?
Its self-cleavage is 0.84.

Which self-cleavage does the source give for A42U U85C A94G here?
Its self-cleavage is 0.

Which self-cleavage does the source give for U23C G53A C66U A77G U115C A136G here?
The self-cleavage was 0.02.

Which self-cleavage does the source give for U20C G34A U100C U109C U119C here?
Its self-cleavage is 0.78.

With U15A A42G G48A U115C as the variant, how does the self-cleavage read?
Its self-cleavage is 1.26.

With U9G U15A A65G as the variant, how does the self-cleavage read?
Its self-cleavage is 0.28.

Which self-cleavage does the source give for C66U A67U C76U U115C here?
Its self-cleavage is 0.02.

For U52A A57G A94G, which self-cleavage is on record?
Its self-cleavage is 0.

Which self-cleavage does the source give for A2G A24C A67U G122C here?
Its self-cleavage is 0.86.

Which self-cleavage does the source give for U14C A121G U134C here?
The self-cleavage was 0.25.

For A2G A57G A124G, which self-cleavage is on record?
Its self-cleavage is 0.97.

With A2G A65G G70A U104A as the variant, how does the self-cleavage read?
The self-cleavage was 0.17.

For U5C G97A U100C U132C, which self-cleavage is on record?
The self-cleavage was 0.71.

Which self-cleavage does the source give for U12A A65G U108C U115A here?
Its self-cleavage is 0.51.

With U23C A79G A94U U96C U109A A141G as the variant, how does the self-cleavage read?
The self-cleavage was 0.17.

For U15C A57C G97A, which self-cleavage is on record?
The self-cleavage was 0.03.

With A78G U119C U130A as the variant, how does the self-cleavage read?
Its self-cleavage is 1.81.

Which self-cleavage does the source give for C3A G8A U14C here?
The self-cleavage was 0.83.

With A42G U46C C103U as the variant, how does the self-cleavage read?
Its self-cleavage is 1.88.

Which self-cleavage does the source give for U46A U62C C95U C111A here?
Its self-cleavage is 0.02.

With U12G U115C C123U U134G A141G as the variant, how does the self-cleavage read?
The self-cleavage was 1.4.
